From ChEMBL document CHEMBL4888484, “Replenishing the malaria drug discovery pipeline: Screening and hit evaluation of the MMV Hit Generation Library 1 (HGL1) against asexual blood stage Plasmodium falciparum ,using a nano luciferase reporter read-out” (2022)
Among all 150,000 compounds or so, about 540 (0.36%) showed an effect of 50% or more. The list shows a part of the results.

Tested on: Plasmodium falciparum
Test: Primary screen in NF54 nanoGlo assay, in single point, at 2uM, 72h; a lower Z score goes with more inhibition
Format: functional, Erythrocyte
Settings: timepoint 72 hour

| SMILES | % Inhibition [%] | Z score |
| --- | --- | --- |
| COc1ccc(COCC(=O)NCCN2CCS(=O)(=O)CC2)cc1 | -11 | 1.46 |
| C[C@H]1Cc2cc(C(=O)NCCc3cnn[nH]3)ccc2O1 | 3 | -0.51 |
| CN1CCC(Nc2nnc(-c3nc(C4CC4)no3)c3ccccc23)CC1 | -2 | 0.26 |
| O=C(c1ccn2c(-c3ccccc3Br)nnc2c1)N1CCN(c2ccccc2)CC1 | -4 | 0.44 |
| CCNC(=O)c1c(F)ccc(S(=O)(=O)CC2CC2)c1F | -8 | 0.95 |
| COc1ccnc(N2CCc3[nH]nc([C@@H]4COc5ccccc5O4)c3C2)n1 | -10 | 1.84 |
| Cc1onc(N)c1S(=O)(=O)N1CCN(Cc2ccncc2)CC1 | -10 | 1.55 |
| C#Cc1cccc(N(C)C(=O)c2cc(-n3ccnc3)ccn2)c1 | -13 | 1.85 |
| N#Cc1c(-c2ccc3c(c2)OCCO3)cc(-c2ccccn2)nc1N | -2 | 0.36 |
| Cc1nnc(-c2coc(S(=O)(=O)N3CCCc4ccccc43)c2)o1 | -15 | 1.93 |
| CCn1c(C)cc2cc(NC(=O)N3CC(N4CCCC[C@@H]4C)C3)ccc21 | -11 | 1.24 |
| Cc1ccsc1C(=O)NC(C1CC1)C1CC1 | -7 | 0.92 |
| CCN(CCOc1ccccc1C)C(=O)Nc1ccc(C)nc1 | -9 | 1.53 |
| Cc1cc(C)n(C[C@H](C)NCc2noc(-c3ccco3)n2)n1 | 0 | -0.03 |
| COC1(CNC(=O)NC2CC=CC2)CCC1 | 31 | -0.87 |
| CC(=O)c1ccccc1C(=O)N1CCC(c2nccn2CC2CCC2)CC1 | -16 | 2.52 |
| Cn1cnc2c1CCN(c1nccn3ccnc13)C2 | -8 | 0.98 |
| Cc1occc1C(=O)N[C@@H]1COCC[C@@H]1OCc1cscn1 | -6 | 0.92 |
| O=C1C2CCCN2C(=O)N1C1CCN(c2ccccn2)C1 (configuration not stated) | -11 | 1.68 |
| CCn1nc(C2CC2)cc1C(=O)N1CC(=O)Nc2ccccc21 | -5 | 0.48 |
| Cn1cc([C@H](NC(=O)N2CCCC(C)(C)CC2)c2ccc(F)cc2)cn1 | -14 | 1.94 |
| Cc1cc(C(=O)Cn2cnn(C(C)(C)C)c2=O)c(C)[nH]1 | 14 | -1.88 |

| SMILES | % Inhibition [%] | Z score |
| --- | --- | --- |
| O=C(NC1CC1)c1coc(CN(CCc2c[nH]c3ccccc23)Cc2cccc(Cl)c2)n1 | -1 | 0.22 |
| Cc1ccc(OCCC(=O)NCc2ccc[n+]([O-])c2)cc1C | -5 | 1.01 |
| CC1(C)CCc2cccc(NC(=O)[C@@]3(C)CCNC(=O)C3)c2O1 | -5 | 0.66 |
| CC1CCC(CN(C)CCC2OCCO2)CC1 (configuration not stated) | -15 | 2.18 |
| CC(=O)N(CCC(=O)N(C)Cc1csc(C)n1)Cc1ccccc1 | -4 | 0.57 |
| O=C(O)C1(Oc2cccc(F)c2)CCN(c2cc(NCCO)ncn2)CC1 | 2 | -0.29 |
| CO[C@@]1(C(=O)O)CCN(Cc2csc3ccccc23)C1 | 3 | -0.52 |
| CCC1CCC(C(=O)NCc2cnc(C)nc2N)O1 (configuration not stated) | -12 | 1.36 |
| Cc1noc(C)c1CNc1nnc2ccccn12 | -3 | 0.54 |
| COC(CS(=O)(=O)N1CCCC(c2nnc[nH]2)C1)C(C)C (configuration not stated) | -7 | 0.71 |
| Cc1ccnc(-n2cnc3ccccc32)n1 | 12 | -1.54 |
| O=C(NCc1cccnc1-n1cnc2ccccc21)c1n[nH]c2c1CCC2 | -5 | 0.56 |
| Cc1nccn1-c1ncc(NC(=O)Cc2c[nH]c3ccccc23)cn1 | -2 | 0.32 |
| COCCN1CC[C@@]2(CCC1=O)CN(Cc1ccc(C)o1)CCN2C | -4 | 0.87 |
| CCN1CCN(C(=O)CCc2c(C)n(C)c3cc(-c4ccccc4C)nn3c2=O)CC1 | 2 | -0.23 |
| O=C(Cc1ccoc1)N1CCO[C@@H](CF)C1 | -2 | 0.3 |
| C[C@@H](CO)N(CC1CCC1)C(=O)Nc1ccc(Br)cc1F | -3 | 0.32 |
| O=C(Cc1ccon1)N1CCO[C@H](c2ccccc2)CC1 | -10 | 2.06 |
| CC1(C(=O)N2CCC(N3CCC(C(=O)N4CCCC4)CC3)CC2)CCCCC1 | -11 | 1.26 |
| CCc1cc(C(=O)NCC#C[C@@H]2CCCCO2)no1 | -28 | 2.96 |
| O=C([C@@H]1COCC(=O)N1Cc1ccccc1)N1CCCCC1 | -4 | 0.6 |
| C[C@H](NC(=O)NCc1ccnc2ccccc12)C1CCC1 | -8 | 1.11 |

| SMILES | % Inhibition [%] | Z score |
| --- | --- | --- |
| CCn1ncnc1CNC(=O)c1cc(C)cc(OC)c1O | -12 | 2.34 |
| O=C(c1cccc(OC(F)F)c1)N(C[C@H]1CCCO1)c1ccncc1 | -10 | 1.56 |
| COCCN1C(=O)C[C@](CC(=O)N2CCN(CC(=O)N(C)C)CC2)(c2ccccc2F)C1=O | -10 | 1.3 |
| CC[C@@](NC(=O)c1cscn1)(C(N)=O)C(C)C | -3 | 0.31 |
| Cc1nnsc1[C@H](C)ON=C(N)C(C)C | -8 | 1.05 |
| O=C(NCc1ccc(Cl)cc1)c1ccc(-n2nc(OCc3cccc(F)c3)ccc2=O)cc1 | -7 | 1.32 |
| COc1ccc(CCC(=O)N2CC(N(CC(C)C)C3CCN(C)CC3)C2)cc1 | 1 | -0.13 |
| CCc1ccc(CNC(=O)c2nnc3ccc(-c4ccccc4)nn23)cc1 | -4 | 0.83 |
| Cc1nc(N2CCOCC2)c2c(C(=O)Nc3ccc(F)cc3F)c(C)oc2n1 | -11 | 1.86 |
| O=C(Nc1ccc(F)cc1)OC1CCCC(NS(=O)(=O)c2ccc(Cl)s2)C1 (configuration not stated) | -22 | 4.16 |
| CCNC(=O)C(=O)NCc1nc(CC)no1 | -6 | 0.9 |
| N#Cc1c[nH]c(C(=O)Nc2ccc(F)cc2NC2CC2)c1 | -1 | 0.09 |
| Cc1n[nH]c(C)c1CCNC(=O)c1cc(S(C)(=O)=O)cs1 | -3 | 0.38 |
| COCC[C@]1(NS(=O)(=O)c2ccccc2)CCN(S(=O)(=O)c2cccnc2)C1 | 2 | -0.28 |
| CCc1c(C(=O)Nc2ccc3nc(C)cn3c2)cnc2cc(O)nn12 | -9 | 1.6 |
| CC(=O)N1C[C@H]2CC[C@@H](C1)N(C(=O)c1[nH]c3ccc(C)cc3c1C)C2 | -8 | 1.31 |
| COc1ccc(C(=O)N2CCc3cc4cccc(C)c4nc32)cc1 | -4 | 0.47 |
| CC1CCN(C(=O)NCc2ccc3c(c2)CCC3)C1CO (configuration not stated) | -14 | 1.89 |
| CN(Cc1ccoc1)C(=O)c1cccc(-c2nc(N(C)C)n(C)n2)c1 | -3 | 0.55 |
| COC(=O)c1nc([C@@H]2CCCN2c2nccn3cnnc23)sc1C | -6 | 0.93 |
| CN(C(=O)c1coc(-c2ccccc2)n1)c1ccc(N2CCOCC2)nc1 | -14 | 1.76 |
| CC(C)(C)CN(C[C@H](O)c1ccccc1)C(=O)Cc1ccc(OCC#N)cc1 | -3 | 0.48 |

| SMILES | % Inhibition [%] | Z score |
| --- | --- | --- |
| Cc1nn(-c2ccc(C(=O)N3CCN(c4ccccc4F)CC3)cc2)c2c1C(=O)CCC2 | -9 | 0.86 |
| CCOc1nc2cc(C(=O)N3C[C@H](OC)C[C@H]3COC)ccc2[nH]1 | -6 | 0.8 |
| CCc1nn(C)cc1CN1CCC(O)(C(F)(F)F)CC1 | -12 | 1.65 |
| O=C(CN1C(=O)COc2ccc(C(=O)N3CCN(Cc4ccc5c(c4)OCO5)CC3)cc21)N1CCCC1 | -7 | 0.89 |
| C[C@](O)(CNC(=O)Cc1ccc2cn[nH]c2c1)c1ccco1 | -7 | 1.01 |
| Cc1nc(CO[C@H]2CCN(c3ccc(S(C)(=O)=O)cc3)C2)cs1 | -22 | 1.82 |
| CN1CCN(C2(CNC(=O)c3cc(O)ccc3F)CCCC2)CC1 | -5 | 0.97 |
| Cc1ccc(CNC(=O)Cc2nnc(-c3ccccn3)o2)cc1C | 2 | -0.16 |
| Cc1cc(NC(=O)NCC2(O)CCCCCC2)nn1C1CCCCC1 | 0 | -0.06 |
| CCN(CC)c1ncnc2sc(C(=O)Nc3cccc(OC)c3)c(C)c12 | 3 | -0.47 |
| CC(=O)NC1C(Oc2cccc3cccnc23)OC(COC(C)=O)C(OC(C)=O)C1OC(C)=O (configuration not stated) | 5 | -0.57 |
| COc1ccc(CCN2C(=O)N[C@@H](CC(=O)NCCn3cccn3)C2=O)cc1 | 1 | -0.1 |
| Cc1ncsc1CCc1nc(-c2ncsc2Cl)no1 | -3 | 0.36 |
| CC[C@]1(O)CCN(Cc2nccc(OC)c2OC)C[C@@H]1O | 3 | -0.36 |
| Cc1cc(S(=O)(=O)N2CCc3ccc(F)c(C(=O)O)c3C2)c(C)s1 | -10 | 1.35 |
| CC(C)CCn1ccc(NC(=O)Nc2ccncc2)n1 | -12 | 1.38 |
| CC(=O)Nc1ccc(S(=O)(=O)Nc2cnc(N(C)C)nc2N(C)C)cc1 | 6 | -0.87 |
| O=C1CCN(CC(=O)N[C@H]2CCCc3ccccc32)CCN1 | 0 | 0 |
| COCCC1(CNC(=O)Nc2cc(C3CCC3)nn2C)CCC1 | -5 | 0.76 |
| CCc1nsc(N[C@H]2CCc3ncsc3C2)n1 | -2 | 0.21 |
